# Assay results published in PubChem BioAssay AID686978 (National Center for Advancing Translational Sciences (NCATS), 2013).
# “And” between values parts separate entries of the source, which are not always exact repeats. Equal entries are not always repeated. The campaign covered roughly 420,000 compounds. About 64,000 (15%) were called active. The shares of active, inactive and inconclusive entries below differ from those in the screen. Calls come from the whole dose curve; as a rule, active = well fitted inhibition curve with a large enough effect; inconclusive = small, poorly fitted or top-dose-only effect; inactive = flat fitted curve, though single readings scatter. Potencies of inconclusive entries are doubtful fits and often do not repeat.
# Experiment: qHTS for Inhibitors of human tyrosyl-DNA phosphodiesterase 1 (TDP1): qHTS in cells in absence of CPT; note: nearly all actives have a fitted effect of over 55% in size
# Conditions: DT40 Tdp1-/- hTDP1 cells, no CPT, ATP luminescence, 48 h; activity change, negative = growth inhibition: at 46.2 µM (top of the series) unless noted
# Outline: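 Chicken DT40 Tdp1-/- cells complemented with human TDP1, screened without camptothecin (DMSO vehicle only), 400 cells/well. Compounds pin-transferred, cells incubated at 37 °C for at least 48 hr. Growth read as ATP-dependent luminescence (CellTiter-Glo, 30 min at RT).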
# % is set by controls: 0 for no effect and ±100 for the full control effect; potency is the fitted concentration of half-maximal effect; tags give direction and shape of the fitted curve.
Structure (SMILES),Potency,"activity change, negative = growth inhibition"
Cc1cc(C)n(-c2ccc(NC(=O)C3CCN(Cc4cnc(C)s4)CC3)cc2)n1,"inconclusive: 13 µM [inhibitor, partial curve]",
CCOc1cc(/C=C2/C(=O)N(c3ccccc3)N=C2C)ccc1OC(=O)c1ccco1,"inconclusive: 23.1 µM [inhibitor, single point]",
Cn1c(=O)oc2cc(S(=O)(=O)N3CCC(C(=O)N4CCN(c5cccc(Cl)c5)CC4)CC3)ccc21,active: 1.46 µM,
CN(CC(=O)Nc1cccc(S(=O)(=O)N2CCCC2)c1)Cc1ccccc1,"inconclusive: 29.1 µM [inhibitor, single point]",
COc1ccc(/C=N/NC(=O)c2cc(-c3ccccc3)nc3ccccc23)cc1O,active: 1.3 µM,
CCOc1ccc(CCNC(=O)c2ccc(CS(=O)Cc3ccc(Cl)cc3)o2)cc1 (centres undefined),"inconclusive: 25.9 µM [inhibitor, single point] and inconclusive: 18.4 µM [inhibitor, single point]",
Cc1ccc(-n2c(-c3ccccc3)c[n+]3c2CCc2ccccc2-3)c(C)c1,active: 0.0366 µM,
CCOc1ccc2ccccc2c1C(=O)N1CCN(c2ccccc2)CC1,active: 16.4 µM,
Cc1cc(C(=O)NNC(=S)NC(C)c2ccccc2)c2ccccc2n1 (centres undefined),"inconclusive: 16.4 µM [inhibitor, partial curve, poor fit]",
CCn1c(SCc2ccc(C)cc2)nnc1-c1nn(-c2ccccc2)ccc1=O,inactive,
CCOC(=O)c1c(C)[nH]c(C)c1C(=O)COC(=O)[C@@H](NC(=O)c1ccccc1OCC)C(C)C,active: 20.6 µM,
Cc1ccc(Cn2c(C)c(CNCc3ccc(OC(C)C)cc3)c(C(=O)O)c2C)cc1,"inconclusive: 23.1 µM [inhibitor, single point]",
COc1ccc(CC(=O)NCCc2sc(-c3cccc(F)c3)nc2C)cc1,"inconclusive: 1.84 µM [inhibitor, single point]",
CCCCOc1ccc(C(=O)N(Cc2nc(-c3ccc(Cl)cc3)no2)C(C)C)cc1,"inconclusive: 29.1 µM [inhibitor, single point]",
CCc1nn(CC(=O)NC2CCN(Cc3ccccc3)CC2)c(=O)c2cc3cc(F)ccc3n12,"inconclusive: 16.4 µM [inhibitor, partial curve]",
COCCNc1nc(-c2cc(C)c(C)cc2C)cs1,"inconclusive: 16.4 µM [inhibitor, single point]",
COC(=O)c1ccc(NC(=O)Nc2ccc(OC)c(OC)c2)cc1,"inconclusive: 29.1 µM [inhibitor, single point]",
CC(C)=CCC/C(C)=C/CO,inactive,
CCOC(=O)c1ccc(NC(=O)c2nc[nH]c2C(=O)N[C@@H](CC(C)C)C(=O)OCc2ccccc2)cc1,"inconclusive: 29.1 µM [inhibitor, single point]",
CC(C)c1nc(SCC(=O)N2CCCC2)c2ccccc2n1,"inconclusive: 20.6 µM [inhibitor, partial curve]",
Cc1ccc(Cc2nnc(SCC(=O)Nc3ccc(C)cc3C)[nH]c2=O)cc1,"inconclusive: 29.1 µM [inhibitor, single point]",
Clc1ccc(C=NC23CN4CN(CN(C4)C2)C3)cc1,inactive,
N#CCc1nn(-c2ccccc2)c(N)c1C#N,inactive,

Structure (SMILES),Potency,"activity change, negative = growth inhibition"
CN1C(=O)CSC1=NCC12CC3CC(CC(C3)C1)C2,"inconclusive: 18.4 µM [inhibitor, partial curve]",
CC(=O)N1CCc2cc(Br)cc(S(=O)(=O)CCC(=O)NCCc3ccc(Cl)cc3)c21,"inconclusive: 29.1 µM [inhibitor, single point]",
CN(Cc1ccccc1)C(=O)c1ccc(NC(=O)Cc2cccc(NC(=O)C3CCN(C(=O)C4CC4)CC3)c2)cc1,inactive,
O=C(O)CN1C(=O)/C(=C\c2ccccc2OCc2ccc(F)cc2)SC1=S,inactive,
CCN(CC)CCCn1c2c(c(SCC(=O)Nc3nccs3)nc1=O)CCC2,inactive,
CN1CCc2c(sc3c2C(=O)NC(c2ccc(OC(=O)c4ccc(Cl)cc4)cc2)N3)C1 (centres undefined),"inconclusive: 20.6 µM [inhibitor, single point]",
C=CCNC(=S)N/N=C/c1cn(C)c2ccccc12,"inconclusive: 20.6 µM [inhibitor, single point]",
CC1=Nc2ccccc2N=C(NC(=O)c2ccccc2)C1c1ccc(Cl)cc1 (centres undefined),active: 20.6 µM,
COc1ccc(NC(=O)c2cccc(N3C(=O)C4C5C=CC(C6CC56)C4C3=O)c2)cc1 (centres undefined),active: 20.6 µM,
COc1ccc(OC)c(NS(=O)(=O)c2ccc(Br)s2)c1,active: 18.4 µM,
CCNC(=O)N1C[C@H]2CON(C)[C@H]2C[C@H]1c1ccccc1Br,inactive,
CC(=O)Nc1nonc1-c1nc2ccccc2n1Cc1ccccn1,"inconclusive: 25.9 µM [inhibitor, single point]",
CCOc1ccccc1OCCCC(=O)ON=C(N)c1ccccc1,inactive,
COc1ccc(S(=O)(=O)N2CCN(C(=O)c3cc(-c4ccc(C)cc4)n[nH]3)CC2)cc1,"inconclusive: 18.4 µM [inhibitor, single point]",
CCC(=O)c1ccc(OC)c(OC)c1OCc1ccccc1,,inconclusive: -37.3% [inhibitor]
COC(=O)Nc1nc2ccc(S(=O)c3ccccc3)cc2[nH]1 (centres undefined),active: 8.41 µM,
CCOc1ccc(NC(=O)c2oc3ccccc3c2NC(=O)Cc2cccc(C)c2)cc1,"inconclusive: 18.4 µM [inhibitor, single point]",
CC(=O)Oc1c2c(c3c(c1CC=C(C)C)O[C@@]14C(=CC5CC1C(C)(C)OC4(C/C=C(\C)C(=O)O)C5=O)C3=O)OC(C)(CCC=C(C)C)C=C2 (some centres undefined),active: 1.3 µM,
Cc1nc2c3c(sc2c(=O)[nH]1)NC(=O)CC3c1ccccc1Cl (centres undefined),"inconclusive: 7.31 µM [inhibitor, partial curve]",
Cc1cc(=O)oc2cc(NC(=S)NNC(=O)c3c(Cl)cnn3C)ccc12,inactive,
COc1ccc2oc(C(=O)OCC(=O)N3CCN(S(=O)(=O)c4ccc(C)cc4)CC3)c(C)c2c1,"inconclusive: 32.6 µM [inhibitor, single point]",
O=S(=O)(c1cccc(-c2cn3ccccc3n2)c1)N1CCCC1,inactive,
CC12CCC(=O)N1C(C(=O)Nc1nc(-c3ccc(F)c(F)c3)cs1)CS2 (centres undefined),"inconclusive: 18.4 µM [inhibitor, single point]",

Structure (SMILES),Potency,"activity change, negative = growth inhibition"
CC(C)c1ccc(NC(=O)CCNS(=O)(=O)c2cccc3nsnc23)cc1,"inconclusive: 29.1 µM [inhibitor, partial curve] and inconclusive: 9.2 µM [inhibitor, partial curve]",
ON=C1/C(=N\O)CC2(C/C1=N/O)OCCO2,"inconclusive: 29.1 µM [inhibitor, single point]",
CCC(C(=O)OCCN(CC)CC)c1ccccc1 (centres undefined),"inactive and inconclusive: 29.1 µM [inhibitor, single point]",
COc1ccc(OC)c(S(=O)(=O)Nc2cccc(F)c2)c1,inactive,
COc1ccc(S(=O)(=O)Nc2ccc(NC(C)=O)cc2)cc1[N+](=O)[O-],inactive,
CCOC(=O)C1=C(CC)Nc2ccccc2N=C1NC(=O)CCNC(C)=O,,inconclusive: 2.15% [inhibitor]
COc1ccc(-n2nnnc2-c2ccc(S(C)(=O)=O)cc2Cl)cc1,active: 5.17 µM,
CCN(CC(=O)Nc1cc(Cl)ccc1C)C(=O)CCS(=O)(=O)c1ccc(C)cc1,inactive,
CC1CC(C)CN(C(=S)Nc2ccc(SC(F)F)cc2)C1 (centres undefined),"inconclusive: 29.1 µM [inhibitor, single point]",
COc1ccc(CCc2nc(-c3cccs3)no2)cc1,inactive,
C(=C\c1ccccc1)/CN1CCN(C(c2nnnn2-c2ccc3c(c2)OCCO3)C2CC2)CC1 (centres undefined),active: 14.6 µM,
COc1c(C(=O)NCCSC(C)(C)C)ccc2ccccc12,"inconclusive: 29.1 µM [inhibitor, single point]",
CCC1=C(OC(=O)N(CC)CC)N2C(=O)OC(=NCCc3c[nH]c4ccccc34)[C@]2(Cc2ccccc2)[C@H]2C1=CC[C@H]1C(=O)N(C)C(=O)[C@H]12,"inconclusive: 29.1 µM [inhibitor, single point]",
CCCCNC(=O)CCn1nc(-c2ccccc2)c2ccccc2c1=O,"inconclusive: 18.4 µM [inhibitor, partial curve]",
O=C(NNc1ccccn1)C(=O)NNS(=O)(=O)c1ccc(F)cc1,"inconclusive: 16.4 µM [inhibitor, partial curve, poor fit]",
O=C1c2ccccc2C(=O)c2c(O)ccc(O)c21,,inactive: -10.1% [at 9.04 µM]
Cc1nc2ccccc2cc1C(=O)N/N=C/c1ccc([N+](=O)[O-])cc1,"inconclusive: 29.1 µM [inhibitor, single point]",
O=C(COc1ccc(Cl)cc1)NCCc1csc(-c2cccc(F)c2)n1,"inconclusive: 29.1 µM [inhibitor, single point]",
COc1cccc(C(=O)N(Cc2nc(-c3ccc(C)cc3)no2)C(C)C)c1,"inconclusive: 23.1 µM [inhibitor, single point]",
COC(=O)c1ccc(NC(=S)NCCc2ccc(OC)cc2)cc1,active: 3.66 µM,
Cc1ccc(NC2=C(Cl)C(=O)OC2OC(=O)c2ccccc2C)cc1 (centres undefined),"inconclusive: 25.9 µM [inhibitor, single point]",
CCCCc1ccc(/C=C2\C(=O)ON=C2c2ccccc2)s1,inactive,
COC(c1ccccc1)c1nnc(CCC(=O)N(C)Cc2cccc(-n3cccn3)c2)o1 (centres undefined),inactive,
